# Laboratory results published in the supplement of paper PMC4466236.
# In all, about 33,000 sequences were measured (“E-score (dimensionless, -0.5 to 0.5)”: median about -0.058, highest 2% from about 0.35 on). This is one part of the list.
# Tested on: MvaT
# Experiment: PBM 8-mer E-score (mean of HK and ME arrays) (E-score (dimensionless, -0.5 to 0.5)); higher = stronger relative binding preference; most listed sequences are background and not binding sites
# How it was run: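 Full-length P. aeruginosa MvaT, with glutathione S-transferase fused to its N-terminus (cloned into pTH6838 by isothermal assembly), was tested by protein binding microarray using a previously described protocol. Two universal double-stranded 60-mer arrays (ME and HK) were used, each with a constant 25-mer primer region and a variable 35-mer region covering all 8-mers. The rank-based 8-mer E-score (-0.5 to 0.5) is the mean of the two arrays, parsed with a custom Python script.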
row,Sequence,PBM 8-mer E-score
1,ATAGGTGC,0.0145
2,TCGTAGAA,-0.112
3,AGGCATAG,-0.161
4,CATTACAG,0.0354
5,CCCCGGCA,-0.121
6,AGCACCTA,-0.0609
7,CATGACGG,-0.158
8,CGCCATCA,-0.12
9,GGGGTGTA,-0.0911
10,CGGGTTAA,0.0999
11,AAAAGGGG,-0.111
12,GGAAATAA,0.31
13,ATCTTCGC,-0.113
14,ATACAGTC,-0.0525
15,ACTGTATC,-0.0224
16,AACGCACC,-0.149
17,ATGGAATG,-0.0592
18,TATCCAGA,0.0481
19,CCGGGCCG,-0.314
20,CACCTTAC,0.0325
21,AGGCTCTG,-0.239
22,TAGAAGGA,0.0517

row,Sequence,PBM 8-mer E-score
1,AACAGAAC,-0.0295
2,AAATGGTG,-0.107
3,TCAACTGA,0.0767
4,AGGATAGC,-0.177
5,ACCGTCTG,-0.163
6,ACACATGA,0.0834
7,ATAGCGTG,-0.117
8,ATTGATTC,0.19
9,CACTACTC,-0.00541
10,ATTGGGAG,-0.0538
11,ACCAAAGA,0.0705
12,TAGCAATA,0.226
13,CGTATAGC,0.0225
14,AGAACAAT,0.249
15,GTCGTAAA,-0.0357
16,CCAACACC,-0.0275
17,AAAGTGTG,0.0346
18,AAAACTCC,0.0164
19,CACGATAG,-0.0302
20,ACACGGTC,-0.206
21,AGTTACAG,0.182
22,GCAGTCAA,0.0481

row,Sequence,PBM 8-mer E-score
1,AGCTGGGC,-0.183
2,AGCGGAAT,-0.0784
3,CGAACGCC,-0.224
4,GATCATTA,0.172
5,CCAAATGA,0.125
6,CTAAAAAG,0.00374
7,CAGTGTCG,-0.197
8,GCCAAGGC,-0.237
9,AAATTCGA,0.101
10,GGCATTGA,-0.133
11,AGATCGAC,-0.122
12,TCCACACA,-0.0309
13,AATATTTA,0.45
14,ATGCACTG,-0.0096
15,AGAGCAGA,-0.011
16,ATATGTAC,0.368
17,CGCGCACC,-0.169
18,CGAATTCG,0.112
19,GAACGCGA,-0.0383
20,AGACGGAT,-0.245
21,ATAGAAAA,0.173
22,AAGCCGCT,-0.232

row,Sequence,PBM 8-mer E-score
1,CAGAGGCA,-0.164
2,ACCGTATA,0.161
3,CATAATAA,0.334
4,AATTGCGT,0.192
5,AGATACTG,0.0147
6,ACTCTCAC,-0.0116
7,AATGACGA,-0.0327
8,AGCGCTCA,-0.124
9,CCTTGTCA,-0.218
10,AAATGTGA,0.0714
11,CCTGAATA,0.0626
12,CACACAGC,0.0806
13,AATATTGC,0.307
14,GAAGCACC,-0.126
15,ATCTTGCA,0.202
16,CCGGACAC,-0.138
17,GACTACTC,-0.0717
18,CCGTGCAG,-0.147
19,CAAAGATA,0.178
20,TACTACCA,0.148
21,ACGTGTAC,-0.114
22,AGTATAAT,0.336

row,Sequence,PBM 8-mer E-score
1,CTCGCCGA,-0.192
2,ATCGGATC,-0.129
3,AGGCGTTA,0.0311
4,CAATCCAA,-0.0468
5,GCATATCC,-0.0669
6,CGTCCAGA,-0.16
7,TCCCAGGA,-0.103
8,GATAGAAA,0.105
9,CTAGATAG,-0.103
10,ATACGGAA,0.0762
11,ACCTGCCT,-0.253
12,CCGATCGA,-0.111
13,AGTCACGC,-0.107
14,AAATCTTC,0.131
15,GAATTCCA,0.0476
16,ACTTGGGC,-0.231
17,CCTAAGAG,-0.0279
18,AGAGAACC,-0.192
19,TGGCCCCA,-0.182
20,ACAGCGAC,-0.0538
21,AGGTAGAG,-0.12
22,CGGCAGTA,-0.0713
